The results in this text go back to paper PMC11302665.

The assay concerns the target T1, L-cysteine desulfurase IscS (E. coli), P0A6B7.
T1 chain: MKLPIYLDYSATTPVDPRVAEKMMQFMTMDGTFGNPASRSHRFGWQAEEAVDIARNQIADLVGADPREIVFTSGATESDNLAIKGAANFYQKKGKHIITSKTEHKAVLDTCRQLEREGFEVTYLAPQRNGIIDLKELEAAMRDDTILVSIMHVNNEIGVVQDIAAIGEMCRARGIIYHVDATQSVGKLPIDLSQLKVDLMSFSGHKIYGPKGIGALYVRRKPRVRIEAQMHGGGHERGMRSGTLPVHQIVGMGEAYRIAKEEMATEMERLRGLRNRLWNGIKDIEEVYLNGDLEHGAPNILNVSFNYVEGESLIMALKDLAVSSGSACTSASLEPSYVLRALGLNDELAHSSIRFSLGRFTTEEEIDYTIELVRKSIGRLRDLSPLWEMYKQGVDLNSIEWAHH
In words: native MS; ESI-MS under non-denaturing conditions of IscS alone, 250 mM ammonium acetate, pH 8.0. As to conditions: remark: other sources report otherwise.

B1: L-cysteine desulfurase IscS, P0A6B7 1-404 (enzyme)
chain: T1 chain
modifications: here or on the partner: PLP (pyridoxal phosphate) cofactor; PLP (pyridoxal phosphate) cofactor
With B1, the stoichiometry N was found to be 2.

One may read the stoichiometry N as a count of units in the complex or per binding partner.
